Some of the results follow. These are noisy estimates, calculated here from bound and input reads.

For this test, the target named is T1, Pho4 (S. cerevisiae) (UniProt P07270).
T1 sequence: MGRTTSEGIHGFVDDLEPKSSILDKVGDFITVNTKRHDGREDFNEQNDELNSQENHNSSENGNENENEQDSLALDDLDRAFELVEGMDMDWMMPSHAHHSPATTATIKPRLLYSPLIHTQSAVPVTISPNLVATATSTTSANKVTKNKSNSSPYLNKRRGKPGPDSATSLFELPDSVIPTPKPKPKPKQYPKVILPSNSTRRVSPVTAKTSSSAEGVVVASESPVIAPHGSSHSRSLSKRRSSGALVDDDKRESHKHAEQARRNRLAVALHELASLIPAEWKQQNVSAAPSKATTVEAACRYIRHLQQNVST
Description: relative binding free energy (BET-seq); higher = weaker binding. Conditions: reference: library average.
On to ATCATCACGTGTGGTT, for which the “relative binding free energy” value turned out to be 0.28 kcal/mol.
Under GGTTACACGTGAATGC stands 0.46 kcal/mol.
Under GGGTACACGTGGATTG stands 0.03 kcal/mol.
The result for CGGGTCACGTGGCTAG reads 0.18 kcal/mol; that for TATGACACGTGTGCGT, -0.13 kcal/mol.
As for CTTTACACGTGAGTAT, the “relative binding free energy” value was found to be 0.29 kcal/mol.
The result for AATCGCACGTGTGTAG reads 0.02 kcal/mol; that for AGCGGCACGTGTGGTA, -0.04 kcal/mol; that for CTTTTCACGTGGTGCG, 0.15 kcal/mol.
The result for TATGCCACGTGTAAGG reads -0.05 kcal/mol; that for GGGACCACGTGGGATT, 0.03 kcal/mol; that for TATTGCACGTGTGCAG, 0.12 kcal/mol.
Under AGTTTCACGTGATCTA stands 0.27 kcal/mol; under TCGATCACGTGGTTAG, 0.08 kcal/mol.
Take AGGGACACGTGGGTCT: the “relative binding free energy” value is -0.14 kcal/mol.
For the sequence CGGCGCACGTGGGTGT, the “relative binding free energy” value was -0.43 kcal/mol.
Under GGAGACACGTGGTTCG stands 0.12 kcal/mol.
The result for ATGGGCACGTGTTTCG reads -0.06 kcal/mol; that for GTTAGCACGTGAGGTG, 0.19 kcal/mol; that for GGTGTCACGTGCTCTG, -0.02 kcal/mol.
The result for TTTTGCACGTGTGAGG reads 0.19 kcal/mol.
As for ATCTGCACGTGTAAGT, the “relative binding free energy” value was determined as 0.16 kcal/mol.
The result for ATTATCACGTGACGGG reads 0.33 kcal/mol; that for AAAGTCACGTGAGCGT, 0.3 kcal/mol.
For GTAGGCACGTGATAAG, the “relative binding free energy” value was 0.13 kcal/mol.
Under AGGATCACGTGCTTTT stands 0.08 kcal/mol; under CGTAACACGTGAGGTG, 0.12 kcal/mol; under TTGGGCACGTGTACGC, -0.04 kcal/mol.
Under TCTATCACGTGGTGGT stands 0.07 kcal/mol.
Under TGGGGCACGTGTGGCG stands -0.05 kcal/mol.
As for TGGAGCACGTGGTGTC, the “relative binding free energy” value is -0.1 kcal/mol.
The result for AAAGACACGTGTTGTA reads 0.05 kcal/mol.
For the sequence TTAGGCACGTGGGATC, the “relative binding free energy” value is -0.19 kcal/mol.
Under AGAATCACGTGTTTGA stands 0.26 kcal/mol.
For TTTGTCACGTGGAAAA, the “relative binding free energy” value was determined as 0.32 kcal/mol.
As to GTCGTCACGTGGGCCG, the “relative binding free energy” value stood at 0.03 kcal/mol.
For the sequence TATAACACGTGCGTAT, the “relative binding free energy” value is -0.06 kcal/mol.
For CGCAGCACGTGGTGGT, the “relative binding free energy” value is -0.28 kcal/mol.
For ATGACCACGTGGTTTG, the “relative binding free energy” value was -0.16 kcal/mol.
Under TAGAGCACGTGTATTT stands -0.16 kcal/mol.
The result for TGGGGCACGTGGGAGG reads -0.13 kcal/mol.
Under TTTTTCACGTGGAGAT stands 0.23 kcal/mol.
With TATTGCACGTGAAGGC, the “relative binding free energy” value came to 0.22 kcal/mol.
The result for GGCAGCACGTGGGTTA reads -0.1 kcal/mol.
Under GTGAGCACGTGAAGTG stands 0.18 kcal/mol.
Under AGATGCACGTGTCTGT stands 0.01 kcal/mol; under TTCTGCACGTGATGAT, 0.09 kcal/mol.
Turning to TAGTGCACGTGGGGAT, the “relative binding free energy” value was -0.11 kcal/mol.
Under CAGGGCACGTGGTATA stands -0.2 kcal/mol.
Under GGATGCACGTGGGGGA stands -0.04 kcal/mol; under GAATTCACGTGTGTTC, 0.32 kcal/mol; under ATTGGCACGTGAGAAT, 0.09 kcal/mol.
Under TGTATCACGTGTATTC stands 0.15 kcal/mol.
TCTAGCACGTGGGGGG: the “relative binding free energy” value was -0.18 kcal/mol.
Turning to GTTTGCACGTGTTTTT, the “relative binding free energy” value was determined as 0.15 kcal/mol.
Under TTAAGCACGTGAGGCT stands 0.02 kcal/mol; under GAGCGCACGTGGGTGA, -0.18 kcal/mol.
Consider TAGGGCACGTGAGGTG, for which the “relative binding free energy” value was found to be 0.1 kcal/mol.
The result for TTAAGCACGTGCGTTG reads 0 kcal/mol; that for GGCATCACGTGCAAGG, 0.32 kcal/mol.
Under TGATTCACGTGTCCGG stands 0.38 kcal/mol.
With GTGGCCACGTGGATTT, the “relative binding free energy” value was 0.04 kcal/mol.
The result for CGGGTCACGTGGGCTG reads -0.03 kcal/mol.

The values above are taken from the BET-seq Pho4 binding data (Le et al. 2018).
